PubChem BioAssay AID1768 (National Center for Advancing Translational Sciences (NCATS), 2009)
Hit rate of the full screen: of about 270,000 compounds, about 620 (0.23%) were called active. Inconclusive results, whose numbers are uncertain, are shown with a selection of clear calls. Calls follow the shape of the dose curve; as a rule, active = well fitted inhibition curve with a large enough effect in the polarisation, with a control signal flat (not every such curve was filed as active); inconclusive = small, poorly fitted or top-dose-only effect, or effect the other way, or a change in a side signal; inactive = no such curve, though single readings can be large or run the other way; the % refers to the polarisation. Where the call is inconclusive, the potency comes from a doubtful curve fit. A note “side channel” means that the fit belongs to a control or component signal, not to the main read-out.

The molecules below were run against Menin (Homo sapiens) (UniProt O00255) (assay: qHTS Assay for Inhibitors Targeting the Menin-MLL Interaction in MLL Related Leukemias: Competition With Texas Red Labeled MLL-derived Mutant Peptide). Settings: fluorescence polarization; series mostly up to 61.6 µM.
Chain of UniProt O00255 (O00255 whole entry, looked up): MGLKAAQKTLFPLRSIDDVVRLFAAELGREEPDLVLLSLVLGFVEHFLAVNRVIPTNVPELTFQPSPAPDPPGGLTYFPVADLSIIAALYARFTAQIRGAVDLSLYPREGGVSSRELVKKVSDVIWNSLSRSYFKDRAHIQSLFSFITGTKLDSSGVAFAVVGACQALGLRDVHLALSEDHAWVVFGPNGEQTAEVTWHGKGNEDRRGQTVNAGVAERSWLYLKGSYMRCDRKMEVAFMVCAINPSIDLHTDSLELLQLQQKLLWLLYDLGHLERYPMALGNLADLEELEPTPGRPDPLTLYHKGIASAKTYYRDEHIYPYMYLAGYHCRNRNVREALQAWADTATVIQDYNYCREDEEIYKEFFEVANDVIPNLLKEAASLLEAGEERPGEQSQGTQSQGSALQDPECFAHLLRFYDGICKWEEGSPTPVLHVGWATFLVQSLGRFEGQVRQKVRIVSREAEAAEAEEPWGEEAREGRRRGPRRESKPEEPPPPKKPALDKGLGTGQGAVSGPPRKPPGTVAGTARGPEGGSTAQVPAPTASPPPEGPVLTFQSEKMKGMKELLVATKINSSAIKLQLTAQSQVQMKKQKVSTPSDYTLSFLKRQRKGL
Potency is read from the fitted curve at half-maximal effect; tags tell the direction and shape of the fitted curve or compound fluorescence and quenching.

Row | SMILES | Potency
1 | O=[N+]([O-])c1ccc(-c2nc(Nc3cccc(O)c3)c3ccccc3n2)cc1 | inconclusive: 2.51 µM [quencher, side channel, full curve]
2 | O=C1N=C(N2CCN(c3ccccc3)CC2)S/C1=C\c1ccco1 | inconclusive: 25.1 µM [quencher, side channel, single point]
3 | COc1cc(C(=O)NCCCCCCNC(=O)c2cc(OC)c(OC)c(OC)c2)cc(OC)c1OC | inconclusive: 39.8 µM [fluorescent, side channel, single point]
4 | Cc1ccccc1CSCc1nc2ccccc2[nH]1 | inactive
5 | Cc1cccc2c1N(C(=O)CN1C(=O)c3ccccc3C1=O)C(C)(C)c1ssc(=S)c1-2 | inconclusive: 10 µM [quencher, side channel, partial curve]
6 | O=C(CCN1CCN(C/C=C/c2ccccc2)CC1)Nc1ccccc1Cl | inconclusive: 11.2 µM [fluorescent, side channel, partial curve]
7 | NS(=O)(=O)c1ccc(NC(=S)NCc2cccc(Cl)c2)cc1 | inactive
8 | O=C(COC(=O)CCc1ccccc1)NC12CC3CC(CC(C3)C1)C2 | inconclusive: 14.1 µM [fluorescent, side channel, partial curve]
9 | Cc1cccc(CNc2ncnc3ccc(-c4cccc(NS(C)(=O)=O)c4)cc23)c1 | inconclusive: 2.82 µM [quencher, side channel, partial curve]
10 | COc1ccc(CN2C(=O)c3ccccc3C(/C=N\OCc3ccc(F)cc3)C2=O)cc1 (stereo not drawn) | inconclusive: 35.5 µM [quencher, side channel, single point]
11 | CC(C)C(=O)Nc1ccc(C(=O)N/N=C/c2cc(Br)cc(Br)c2O)cc1 | inconclusive: 8.91 µM [quencher, side channel, full curve]
12 | O=C(NCc1ccc(F)cc1)C(C(=O)NCc1ccc(F)cc1)c1ncc(C(F)(F)F)cc1Cl | inconclusive: 20 µM [fluorescent, side channel, single point]
13 | CC1=C(C(=O)Nc2ccccc2)C(c2ccco2)C(C#N)=C(SCC(=O)Nc2cccc(C)c2C)N1 (stereo not drawn) | inconclusive: 39.8 µM [inhibitor, single point]
14 | CN(C)C(CNC(=O)CCCN1C(=O)c2cccc3cccc(c23)C1=O)c1ccccc1 (stereo not drawn) | inconclusive: 3.55 µM [inhibitor, single point]
15 | c1cc(SSc2ccncc2)ccn1 | inconclusive: 31.6 µM [quencher, side channel, partial curve]
16 | N#Cc1c(Cl)nc(N/N=C/c2ccccc2)c(Cl)c1Cl | inconclusive: 20 µM [quencher, partial curve]
17 | COc1ccc(-c2nc(N)ncc2Oc2ccccc2Br)c(O)c1 | inconclusive: 14.1 µM [quencher, side channel, partial curve]
18 | CCCn1c(=O)c(C(=O)NNC(=O)c2ccc(Cl)cc2Cl)c(O)c2ccccc21 | inconclusive: 39.8 µM [inhibitor, single point]
19 | COc1ccc(-c2nnc3n2N=C(c2ccc(OC)c(OC)c2)CS3)c(OC)c1 | inconclusive: 28.2 µM [inhibitor, single point]
20 | COc1cc(OC)c(CNC2CCCCCC2)cc1Br | inactive

Row | SMILES | Potency
21 | NC(=S)NNc1cccc2cccnc12 | inconclusive: 17.8 µM [quencher, side channel, partial curve]
22 | CCOc1ccc2nc(NC(=O)CSc3nc(SC)ns3)sc2c1 | inconclusive: 12.6 µM [quencher, side channel, partial curve]
23 | Cn1c(SCC(=O)Nc2ccc3cn[nH]c3c2)nnc1-c1cnccn1 | inactive
24 | N#Cc1cc(-c2ccccc2)nnc1Sc1ccc(F)cc1 | inconclusive: 35.5 µM [fluorescent, side channel, single point]
25 | CN(C1CCCCC1)S(=O)(=O)c1ccc(NC(=O)C2CCCCC2C(=O)O)cc1 (stereo not drawn) | inactive
26 | CC1CCCC(C)N1C(=O)c1ccc2c(c1)S(=O)(=O)c1ccccc1C2=O (stereo not drawn) | inconclusive: 10 µM [inhibitor, single point]
27 | Oc1c(N=NC(=S)Nc2ccccc2F)c2ccccc2n1Cc1ccccc1 | inconclusive: 8.91 µM [quencher, side channel, partial curve]
28 | CCCOc1ccc2ccccc2c1/C=N/n1cnnc1 | inconclusive: 39.8 µM [inhibitor, single point]
29 | CCOC(=O)C1=C(C)N=C2c3ccccc3C(=O)C2C1c1ccc(Cl)cc1 (stereo not drawn) | inconclusive: 14.1 µM [quencher, side channel, partial curve]
30 | O=C1C(Nc2ccccc2)=CC(=O)c2ncccc21 | inconclusive: 7.94 µM [quencher, side channel, partial curve]
31 | O=C(N1CCCCC1)C1(c2ccccc2)CCCCC1 | inconclusive: 3.55 µM [fluorescent, side channel, full curve, poor fit]
32 | Cc1ccsc1CN(C)C(=O)CCc1nnc(COc2ccccc2)o1 | inconclusive: 25.1 µM [fluorescent, side channel, partial curve]
33 | N#C/C(=C(/O)COC(=O)c1cccnc1Cl)c1nc2ccccc2[nH]1 | inconclusive: 25.1 µM [quencher, side channel, partial curve]
34 | COc1ccc(/C=C/c2nc3cc(-c4ccccc4)ccc3o2)cc1O | inconclusive: 10 µM [quencher, side channel, partial curve]
35 | Cc1ccc(NC(=O)CSc2nc(NS(=O)(=O)c3ccccc3)cc(=O)[nH]2)cc1 | inconclusive: 35.5 µM [fluorescent, side channel, single point]
36 | Oc1ccc(C(=S)N2CCN(c3cccc(Cl)c3)CC2)cc1 | inconclusive: 25.1 µM [quencher, side channel, single point]
37 | Cc1ccc(NC(=O)CCn2c(=O)[nH]c3ccsc3c2=O)cc1F | inconclusive: 39.8 µM [fluorescent, side channel, single point]
38 | CCOc1cccc(C(=O)Nc2ccc(NC(=O)c3cc4ccccc4o3)c(OC)c2)c1 | inactive
39 | COc1cccc(-c2cc(C(F)(F)F)nc(-n3cccn3)n2)c1 | inactive
40 | Cc1ccc(C23CC4CC(CC(NC(=O)N5CCN(C)CC5)(C4)C2)C3)cc1 | inconclusive: 25.1 µM [fluorescent, side channel, single point]

Row | SMILES | Potency
41 | COc1cccc(CC(=O)n2nc(N)c3cc4ccc(OC)cc4nc32)c1 | inconclusive: 11.2 µM [quencher, side channel, partial curve]
42 | Cc1cccc(C(=O)Nc2nnc(SCC(=O)Nc3ccc4c(c3)oc3ccccc34)s2)c1 | inconclusive: 12.6 µM [quencher, side channel, partial curve]
43 | Cc1ccc(-n2cc(CN3CCC(O)(c4ccccn4)CC3)c(-c3ccc(F)cc3)n2)cc1 | inactive
44 | CCOc1cc(N2CCOCC2)c(OCC)cc1NC(=O)Cc1ccccc1OC | inconclusive: 2.51 µM [inhibitor, full curve, poor fit]
45 | COc1ccc(S(=O)(=O)N2CCC(C(=O)NCCC(=O)Nc3nccs3)CC2)cc1 | inconclusive: 39.8 µM [inhibitor, single point]
46 | CN(C)/C=C1\NC(=S)N(c2ccc(Cl)cc2)C1=O | inconclusive: 25.1 µM [quencher, side channel, single point]
47 | Cc1ccccc1NC(=S)N/N=C1\CC(C)(C)Oc2ccc(O)cc21 | inconclusive: 11.2 µM [quencher, side channel, partial curve]
48 | Cc1cc(C)nc(SCC(=O)c2ccc(C)c(C)c2)n1 | inconclusive: 31.6 µM [inhibitor, single point]
49 | CCN(CC)CCNCC(O)(c1ccc(Cl)cc1)c1ccc(Cl)cc1 | inconclusive: 31.6 µM [inhibitor, partial curve]
50 | COc1cccc(S(=O)(=O)Nc2ccc3c(c2)OCCO3)c1 | inactive
51 | O=C(NNc1c2ccccc2nc2ccccc12)c1ccc(O)cc1 | inconclusive: 25.1 µM [quencher, side channel, partial curve]
52 | CCC(CC)C(=O)Nc1cc(C(=O)NCCc2ccccc2)ccc1Cl | inconclusive: 5.01 µM [inhibitor, full curve, poor fit]
53 | Cc1ccc(-c2nn(-c3ccccc3)cc2/C=N/NS(=O)(=O)c2ccccc2)cc1 | inconclusive: 7.94 µM [quencher, side channel, full curve]
54 | CSc1ccc(N/N=C(/C#N)S(=O)(=O)C(C)(C)C)cc1 | inconclusive: 14.1 µM [quencher, side channel, partial curve]
55 | COc1cc(/C=C2\SC(=S)N(Nc3ncc(C(F)(F)F)cc3Cl)C2=O)cc(OC)c1OC | inconclusive: 14.1 µM [quencher, side channel, partial curve]
56 | CCCCCC1CCC(c2n[nH]c(=S)n2C)CC1 (stereo not drawn) | inconclusive: 31.6 µM [fluorescent, side channel, single point]
57 | CC(C)C[C@H](NC(=O)[C@@H]1CCCN1C(=O)[C@H](CO)NC(=O)[C@H](Cc1ccccc1)NC(=O)CNC(=O)[C@@H]1CCCN1C(=O)[C@@H]1CCCN1C(=O)[C@@H](N)CCCN=C(N)N)C(=O)O | inactive
58 | CSc1ccccc1NC(=O)Cn1nc([N+](=O)[O-])c(Cl)c1C | inconclusive: 28.2 µM [quencher, side channel, single point]
